# Data published in PubChem BioAssay AID1347073 (National Center for Advancing Translational Sciences (NCATS), 2019).
# Hit rate of the full screen: of about 45,000 compounds, about 200 (0.44%) were called active. Roughly 7% stayed inconclusive and do not appear here. Calls come from the whole dose curve; as a rule, active = well fitted activation curve with a large enough effect; inconclusive = small, poorly fitted or top-dose-only effect; inactive = no such curve, though single readings can be large or run the other way. The list shows a part of the results.
# Test: qHTS of TDP-43 Inhibitors: NCGC Sytravon Library Screen; note: 0% is about no effect; nearly all actives have a fitted effect of over 55% in size
# Details: yeast TDP-43 toxicity rescue, BacTiter-Glo growth, 24 h; series mostly up to 46.1 µM; growth rescue (activation): at the top concentration
# Outline: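 TDP-43-expressing yeast, pregrown in raffinose, seeded at OD600 0.02 in galactose medium with compound for 24 hr at 30 deg C. Growth read by BacTiter-Glo luminescence, so rescue of toxicity appears as activation.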
row,Compound,growth rescue (activation)
1,CCN(C(=O)COC(=O)c1ccc(N2C(=O)c3ccccc3C2=O)cc1)C1CCS(=O)(=O)C1 (configuration not stated),inactive: -1.79%
2,NNC(=O)CSc1nc(-c2ccccc2)nc2c1CCCC2,inactive: 6.23%
3,COc1cccc2cc(C(=O)C3=C(O)C(=O)N(CCN4CCOCC4)C3c3cccs3)oc12 (configuration not stated),inactive: 9.7%
4,O=C(Nc1ccc(NC(=O)c2cccs2)c(Cl)c1)c1cccs1,inactive: -0.504%
5,COC(=O)C(C)(C)ONC(=O)Nc1ccc([N+](=O)[O-])cc1,inactive: 5.57%
6,Cc1cc(C)cc(NC(=O)CSc2nnnn2-c2cccnc2)c1,inactive: 1.99%
7,O=C(COC(=O)CNS(=O)(=O)c1ccc2ccccc2c1)Nc1ccccc1Sc1ccccc1,inactive: 21.8%
8,Cc1cccc(S(=O)(=O)NC(=O)C2(C)CCN2C(=O)Cc2cccs2)c1 (configuration not stated),inactive: 4.16%
9,Cc1cc(C)c(C)c(S(=O)(=O)N2CCCN(C)CC2)c1C,inactive: 1.9%
10,COc1ccccc1N(CC(=O)NCc1ccccc1C)S(=O)(=O)c1ccc(C)cc1,inactive: 21.6%
11,CC(C)(C)OC(=O)N[C@@H](Cc1ccccc1)C(=O)NCC1CCC(C(=O)N[C@@H](CCC(N)=O)C(=O)O)CC1 (some centres not stated),inactive: -10.9%
12,Nc1c(-c2ccccc2)c(CN2CCOCC2)nn1-c1ccc(F)cc1,inactive: 23.4%
13,Cc1cccc(NC(=S)N/N=C2\CC(C)(C)Oc3ccc(O)cc32)c1,inactive: 19.8%
14,CSc1ccccc1NC(=O)c1ccc(CN2CCOCC2)cc1,inactive: -6.96%
15,CCOc1ccc(N2CC(C(=O)NCc3ccco3)CC2=O)cc1 (configuration not stated),inactive: 4.37%
16,Cc1[nH]c(=O)[nH]c(=O)c1CSCC(=O)OCC(=O)Nc1ccccn1,inactive: 3.81%
17,Cc1cc2oc(=O)cc(CN(C)Cc3ccccc3)c2cc1C(C)C,inactive: -11.9%
18,O=C(Nc1ccccc1Cl)C1CCCN(S(=O)(=O)c2ccc(-n3cnnn3)cc2)C1 (configuration not stated),inactive: 7.06%
19,Cc1cc(NC(=O)CSc2nc(-c3ccco3)cc(C(F)(F)F)n2)n(-c2ccccc2)n1,inactive: 25%
20,CCc1cccc(C)c1NC(=O)C1CN(S(=O)(=O)c2ccccc2)CCN1S(=O)(=O)c1ccccc1 (configuration not stated),inactive: 3.56%
21,Cc1ccccc1S(=O)(=O)Nc1ncnc2ccccc12,inactive: 21.1%
22,COc1ccc(S(=O)(=O)N2CCC(C(=O)NC3CC3)CC2)cc1,inactive: 12%
23,COc1ccc(CCNc2ccc(N3C(=O)CC(C)C3=O)cc2[N+](=O)[O-])cc1OC (configuration not stated),inactive: -22.4%
24,COc1ccc(/C=N/NC(=O)c2ccc(N3CCCC3=O)cc2)cc1,inactive: 7.25%
25,CC(C)(C)NC(=O)C(c1ccccn1)N(C(=O)C1CSC(=O)C1)c1cccc(F)c1 (configuration not stated),inactive: 3.5%
26,O=C(N/N=C/c1cn(CC(=O)N2CCOCC2)c2ccccc12)c1cccnc1,inactive: -12.4%

row,Compound,growth rescue (activation)
1,CC1=C(C(=O)Nc2ccccc2)C(c2ccccn2)n2ncnc2N1 (configuration not stated),inactive: 22.6%
2,CC(=O)Nc1ccc(OCC(O)CN2CCN(c3ccccc3Cl)CC2)cc1 (configuration not stated),inactive: -1.42%
3,CCCCCCn1c(SCC(=O)c2c(N)n(C)c(=O)n(C)c2=O)nc2ccccc21,inactive: 9.42%
4,COc1ccc(OC)c(NC(=O)C2(C)CCN2C(C)C)c1 (configuration not stated),inactive: -3.34%
5,Cc1ccc(-n2c(C)n[nH]c2=S)cc1C,inactive: 3.35%
6,CCC(C)(C)NC(=O)CN(C(=O)CCC(=O)Nc1cc(C)ccn1)c1ccc2c(c1)OCCO2,inactive: 14.6%
7,CCN(CC)S(=O)(=O)c1ccc(N2C(=O)Nc3ccccc3N2O)cc1,inactive: 5.29%
8,CCOC(=O)C1=C(CS(=O)(=O)c2ccccc2)NC(=O)NC1c1ccc(O)c(OC)c1 (configuration not stated),inactive: 20.6%
9,CN(C)CCNc1ncnc2c1ncn2[C@H]1CN(CCc2ccccc2)C[C@@H](CO)O1,inactive: 5.57%
10,O=C(NNC(=O)C12CC3CC(CC(C3)C1)C2)c1cccc([N+](=O)[O-])c1,inactive: -2.04%
11,Cn1nnc2cc(C(=O)N3CCN(c4ccccn4)CC3)ccc21,inactive: -10.7%
12,O=C(O)c1c[nH]c2ccc(F)cc2c1=O,inactive: -5.47%
13,CC(c1nc2ccccc2n1Cc1ccccc1)N1CCCCC1 (configuration not stated),inactive: -0.093%
14,Cc1nc(N2CCN(C(=O)c3ccco3)CC2)c2c3c(sc2n1)CC(C)CC3 (configuration not stated),inactive: -57.3%
15,CCN(CC)c1ccc(-n2c(O)c(C=C3N=c4ccccc4=N3)sc2=S)cc1,inactive: 6.32%
16,Cc1cc(-c2nnc(CCC(=O)N3CCN(Cc4cccc(F)c4)CC3)o2)c(C)o1,inactive: 10.1%
17,COc1cc(CC(=O)OCC(=O)NCC(C)C)cc(OC)c1OC,inactive: 4.51%
18,Cc1c(/C=N\NC(=O)C2COc3ccccc3O2)c2ccccc2n1C (configuration not stated),inactive: 23.6%
19,O=C(O)c1ccc(CNC(=S)Nc2ccccc2)cc1,inactive: -22.1%
20,NC(=O)CC[C@H](NC(=O)c1ccc(F)cc1)C(=O)N1CCN(Cc2ccc3c(c2)OCO3)CC1,inactive: 1.62%
21,COc1c(/C=N/NC(=O)c2ccncc2)c(CCN(C)C(C)=O)cc2c1OCO2,inactive: 3.6%
22,CCCn1ccc(O)c(Cc2ccc(Cl)cc2)c1=O,inactive: 0.0391%
23,CCN(CC)S(=O)(=O)c1ccc(N2CCCC2)c(NS(=O)(=O)c2ccc(F)cc2)c1,inactive: -1.55%
24,O=C(Nc1ccc(N2CCOCC2)cc1)c1cccc2ccccc12,inactive: 7.12%
25,Cc1nc(N2CCN(C)CC2)c2cc(-c3ccccc3)sc2n1,inactive: 11.7%
26,O=C(Nc1ccc(N2CCOCC2)c([N+](=O)[O-])c1)c1ccco1,inactive: -5.01%
